Results from PubChem BioAssay AID588855 (National Center for Advancing Translational Sciences (NCATS), 2011).
“And” between values parts separate entries of the source, which are not always exact repeats. Equal entries are not always repeated. The campaign covered roughly 410,000 compounds. About 5,000 (1.2%) were called active. Inconclusive means that the source gave no clear call. Such entries were picked first, then a sample of the others. Calls follow the shape of the dose curve; as a rule, active = well fitted inhibition curve with a large enough effect; inconclusive = small, poorly fitted or top-dose-only effect; inactive = no such curve, though single readings can be large or run the other way. Where the call is inconclusive, the potency comes from a doubtful curve fit. Numbered stars: 1 amine (or outer) side, 2 acyl side, 3 side chain; on linkers, the order of the positions; unused ones are H or OH. Square brackets hold non-standard residues; d marks the D form. Peptide text beside a SMILES is read from it. X8 = CC[C@H](C)C(OC(=O)[C@@H](C)[C@@H](CC)N[*:1])C(=O)[*:2]; X1 = CC(N[*:1])C(=O)C(C)(C)C(=O)[*:2]; NMeY = CN[C@@H](Cc1ccc(O)cc1)C(=O)O; NMeL = CN[C@@H](CC(C)C)C(=O)O; NMeV = CN[C@H](C(=O)O)C(C)C; NMeA = CN[C@@H](C)C(=O)O

Assay: qHTS for Inhibitors of TGF-b; also: nearly all actives have a fitted effect of over 65% in size
Details: HepG2 CAGA-GFP TGF-b/SMAD3 reporter, GFP fluorescence, 18 h, TGF-beta stimulated, 500 pg/mL final; series mostly up to 46.1 µM
In short: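 TGF-beta reporter screen: HEPG2 CAGA-GFP, 1% FBS, 500 pg/mL TGF-beta final, 18 h; per-cell GFP summed per well; curves fitted and categorized by class.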
Potency is read from the fitted curve at half-maximal effect; tags tell the direction and shape of the fitted curve.

| Compound | Potency |
| --- | --- |
| CN(CC(=O)Nc1cccc(F)c1)C(=O)c1cn(-c2ccccc2)nc1-c1ccc(Cl)cc1 | inconclusive: 35.5 µM [inhibitor, single point] |
| CCOC(=O)C1=C(CSc2nc(CC)c(C)cc2C#N)OC(N)=C(C#N)C1c1ccccc1 (configuration not stated) | inactive |
| CCOC(=O)C1=C(COc2ccccc2)NC(=O)NC1c1ccc2ccccc2c1 (configuration not stated) | inconclusive: 11.2 µM [inhibitor, single point] |
| C=CCN1C=C2C(=O)C(C)(OC(=O)CCC(=O)OC)C(=O)C(Br)=C2C=C1c1ccc(OC)cc1 (configuration not stated) | inconclusive: 3.98 µM [inhibitor, full curve, poor fit] |
| C=Cn1cc(CNC[C@H]2O[C@@H](n3ccc(N)nc3=O)[C@H](O)[C@@H]2O)c(C)n1 | inconclusive: 35.5 µM [inhibitor, single point] |
| Cc1nc([N+](=O)[O-])c(Br)n1CC(=O)c1ccc(Br)cc1 | inconclusive: 12.6 µM [inhibitor, partial curve, poor fit] |
| COc1ccccc1N1C(=O)C2C3CC(c4ccccc4)C(C3)C2C1=O (configuration not stated) | inactive |
| CC(C)=N/N=C1/NC(=O)C(c2ccccc2)S1 (configuration not stated) | inconclusive: 6.31 µM [inhibitor, single point] |
| CC(C)C[C@H](NC(=O)c1[nH]cnc1C(=O)N[C@@H](C)C(=O)OCc1ccccc1)C(=O)OCc1ccccc1 | inconclusive: 31.6 µM [inhibitor, single point] |
| O=c1c2cc(N3CCOCC3)ccc2[nH]c(=S)n1CCc1ccccc1 | inactive |
| CCCCCc1cc(=O)oc2c(C(CCN3CCCC3)c3ccc(N(C)C)cc3)c(OC)cc(OC)c12 (configuration not stated) | inconclusive: 15.8 µM [inhibitor, single point] |
| Cc1cc(OCC(=O)N2CCC(C(N)=O)CC2)c2c(C)cc(=O)oc2c1 | inactive |
| C[C@H](NC(=O)c1ccco1)C(=O)Nc1nc(-c2ccccn2)cs1 | inactive |
| CN1C(C)(C)CC(=NO)CC1(C)C | inactive |
| CCOC(=O)Cc1ccc(NC(=O)Nc2nnc(N3CCCCC3C)s2)cc1 (configuration not stated) | active: 11.2 µM |
| Clc1cccc(Cc2c(-c3ccco3)nc3ccc(Br)cn23)c1 | active: 12.6 µM |
| COc1cc(OC)cc(-c2c(C#Cc3ccsc3)c3cc(-c4cnc(OC)nc4)ccc3n2C)c1 | inactive |
| O=C(c1ccccc1F)n1c2c(c3ccccc31)CCCC2 | inactive |
| COc1ccc(CN([C@H](CO)CC(C)C)S(=O)(=O)N(Cc2ccccc2)[C@H](CO)CC(C)C)cc1 | inconclusive: 31.6 µM [inhibitor, single point] and inconclusive: 35.5 µM [inhibitor, single point] |
| Cc1cc(C(=O)COc2cccnc2[N+](=O)[O-])c(C)n1Cc1cccs1 | inactive |
| CC1CCN(Cc2c(C(=O)N/N=C/c3cc(Br)ccc3O)nnn2-c2nonc2N)CC1 | inconclusive: 3.98 µM [inhibitor, full curve, poor fit] |
| COc1ccc(-c2nc3scc(CCNS(=O)(=O)c4cccs4)n3n2)cc1 | inactive |
| COc1ccc(/C=C\C(=O)c2c(O)ccc3c(C)cc(=O)oc23)cc1 | inconclusive: 25.1 µM [inhibitor, single point] |

| Compound | Potency |
| --- | --- |
| CO/N=C/c1ccc(N2CCN(C(=O)c3cccc(C(F)(F)F)c3)CC2)c([N+](=O)[O-])c1 | inconclusive: 35.5 µM [inhibitor, single point] |
| Cc1cc(SCC(=O)N/N=C/c2ccc(C(=O)O)cc2)nc2ccccc12 | inactive |
| N#Cc1ccc(C(=O)N2CCCCC2c2cc(C(=O)NCc3ccccc3)no2)cc1 (configuration not stated) | inactive |
| Oc1c(CN2CCCC2)cc(COCc2ccccc2)c2cccnc12 | active: 4.47 µM |
| Cc1ccc(-n2c(=O)c3c4c(sc3n(CC(=O)C(C)(C)C)c2=O)CCCCC4)cc1C | inconclusive: 7.94 µM [inhibitor, partial curve, poor fit] |
| c1csc(CNc2ccn3nc(-c4ccc(OCCN5CCOCC5)cc4)cc3n2)c1 | inconclusive: 20 µM [inhibitor, single point] |
| Cc1ccccc1OCC(=O)Nc1ccc2c(c1)n(C)c(=O)n2C | inactive |
| Cc1cc2c(cc1S(=O)(=O)CCC(=O)N1CCN(c3ccccc3)CC1)OCC(=O)N2 | inactive |
| CC(=O)NC(=S)Nc1ccccc1N1CCN(C(=O)c2ccccc2)CC1 | inconclusive: 35.5 µM [inhibitor, single point] |
| COc1ccc(-c2nc(-c3ccccc3OC)no2)cc1OC | inactive |
| CC(Oc1ccc(C#N)cc1)C(=O)N1CC=C(c2ccccc2)CC1 (configuration not stated) | inconclusive: 35.5 µM [inhibitor, single point] |
| Cc1nc2cccnc2n1-c1cccc(C(=O)NCc2cccc(Cl)c2)c1 | inactive |
| COC(=O)c1cc(NC(=O)Cc2ccc(OC)c(OC)c2)cc(C(=O)OC)c1 | inactive |
| CCCn1nnc(NC(=O)c2ccc(OC)cc2)n1 | inconclusive: 0.447 µM [inhibitor, partial curve, poor fit] |
| CCOc1ccc(NC(=S)Nc2ccc(OC)cc2)cc1 | inconclusive: 15.8 µM [inhibitor, single point] |
| CCC(C)N(C(=O)c1csnn1)C(C(=O)NC1CCCC1)c1c(F)cccc1Cl (configuration not stated) | inactive |
| CCOC(=O)c1c(-c2ccccc2)csc1NC(=O)CSc1nnnn1C | inactive |
| O=C(O)CCn1c(=O)[nH]c(=O)n(CCC(=O)O)c1=O | inconclusive: 3.55 µM [inhibitor, single point] |
| Cc1cc(NC(=O)CS(=O)(=O)c2cn(Cc3cccc(Cl)c3)c3ccccc23)no1 | active: 17.8 µM |
| CNc1c([N+](=O)[O-])cnn1-c1ccc(Cl)cc1 | inconclusive: 0.112 µM [inhibitor, full curve, poor fit] |
| CC(=O)Nc1cc(-c2ccccc2N(C)C)cn2c(-c3cccc(C(F)(F)F)c3)cnc12 | inconclusive: 35.5 µM [inhibitor, single point] |
| Nc1nc2c(F)c(F)c(F)cc2s1 | inconclusive: 3.55 µM [inhibitor, single point] |
| O=C(N=Nc1c(O)[nH]c2ccccc12)c1cccs1 | inconclusive: 15.8 µM [inhibitor, single point] |

| Compound | Potency |
| --- | --- |
| Oc1cccc(/C=N/Nc2cc(N3CCCC3)nc(N3CCCC3)n2)c1 | inconclusive: 35.5 µM [inhibitor, partial curve, poor fit] |
| O=C(NNS(=O)(=O)c1ccccc1)C1CC(c2cccnc2)=NO1 (configuration not stated) | inconclusive: 0.112 µM [inhibitor, full curve, poor fit] |
| CC[C@H](C)C1OC(=O)[C@@H](C)[C@@H](CC)NC(=O)[C@H](C)N(C)C(=O)C(C)(C)C(=O)C(C)NC(=O)[C@H](Cc2ccc(OC)cc2)N(C)C(=O)[C@H](C(C)C)N(C)C(=O)CNC(=O)[C@H](CC(C)C)N(C)C(=O)CNC1=O (some centres not stated) (cyclo(G[NMeL]G[NMeV][NMeY](Me)[X1][NMeA][X8])) | active: 0.501 µM |
| CCCNC(=O)C1(C)CCCN(Cc2cccc(Oc3ccccc3)c2)C1 (configuration not stated) | inconclusive: 14.1 µM [inhibitor, partial curve, poor fit] |
| COc1ccc(S(=O)(=O)NCCCCCC(=O)NCCCN2CCOCC2)cc1 | inconclusive: 14.1 µM [inhibitor, single point] |
| CCc1ccc2c(c1)c(=O)c(S(=O)(=O)c1ccc(F)cc1)cn2CC(=O)Nc1ccccc1OC | inconclusive: 3.16 µM [inhibitor, partial curve, poor fit] |
| c1ccc(C[C@H]2CNCCN2CCCCC2CCCCC2)cc1 | inconclusive: 35.5 µM [inhibitor, single point] |
| COC(=O)C1CCN(C2=C(NS(=O)(=O)c3ccc(Cl)cc3)C(=O)c3ccccc3C2=O)CC1 | inconclusive: 22.4 µM [inhibitor, single point] |
| CCc1nnc(NC(=O)c2ccc(S(=O)(=O)N3CCCCCC3)cc2)s1 | inactive |
| Nc1nc(N)c(S(=O)(=O)c2ccccc2)c(Nc2ccccc2)n1 | inconclusive: 17.8 µM [inhibitor, single point] |
| S=c1[nH]nc(C2CCCCC2)n1/N=C/c1ccco1 | inactive |
| COC(=O)c1ccc(COC(=O)CNC(=O)CNC(=O)c2ccc(C)cc2)cc1 | inactive |
| COc1cccc(/C=N/NC(=O)c2c(C)nc3ccc(Cl)cn23)c1OC | inactive |
| COc1cc(OC)c(NC(=O)CCc2nc(C3=CCN(Cc4cccc(Cl)c4)CC3)no2)cc1Cl | inconclusive: 7.94 µM [inhibitor, partial curve, poor fit] |
| COc1ccc(CN(C(=O)c2cc3ccccc3oc2=O)C2CCCCC2)cc1OC | inconclusive: 12.6 µM [inhibitor, partial curve, poor fit] |
| Cc1nc2nc(CNC(=O)OC(C)(C)C)nn2c(C)c1CCC(=O)NCc1ccccc1Cl | inactive |
| C=C1C(=O)OC2C1CCC(C)C1C=CC(=O)C12C (configuration not stated) | inconclusive: 20 µM [inhibitor, single point] |
| CC(C)c1ccc(S(=O)(=O)NCc2nc3cccnc3n2Cc2ccc(F)cc2)cc1 | inconclusive: 35.5 µM [inhibitor, single point] |
| CCCCn1c(SCC(=O)Nc2ccc3c(c2)OCO3)nc2c1c(=O)n(C)c(=O)n2C | inconclusive: 35.5 µM [inhibitor, single point] |
| COc1ccc(CNC(=O)CCS(=O)(=O)c2cc3c(cc2Cl)NC(=O)CO3)cc1 | inactive |
| O=S(=O)(NCc1ccc(Cl)cc1)c1ccc(Cl)nc1 | inconclusive: 3.55 µM [inhibitor, single point] |
